# Some of the results follow.
# Columns and labels:
# Assay in all cases: glycan array binding signal (z-score within array); higher = stronger binding
# Conditions in all cases: glycan notation: IUPAC condensed, linker removed
# [1] = biological target: Neu5Ac(a2-6)Gal(b1-4)GlcNAc(b1-3)Gal(b1-4)GlcNAc(b1-3)Gal(b1-4)GlcNAc(b1-2)Man(a1-3)[Neu5Ac(a2-6)Gal(b1-4)GlcNAc(b1-3)Gal(b1-4)GlcNAc(b1-3)Gal(b1-4)GlcNAc(b1-2)Man(a1-6)]GalNAc
# Summary of the method: (§1)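 The Consortium for Functional Glycomics database supplied 3228 glycan arrays, of which those lacking an available protein sequence were dropped. The binding signal, a within-array Z-score, was averaged across arrays of the same protein sequence and across linkers. Negative scores can be read as non-binding.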
# [2] = biological target: Neu5Ac(a2-6)Gal(b1-4)GlcNAc(b1-3)Gal(b1-4)GlcNAc(b1-3)GalNAc
# Summary of the method: as §1
# [3] = biological target: Neu5Ac(a2-6)Gal(b1-4)GlcNAc(b1-3)Gal(b1-4)GlcNAc(b1-3)[Neu5Ac(a2-6)Gal(b1-4)GlcNAc(b1-3)Gal(b1-4)GlcNAc(b1-6)]GalNAc
# Summary of the method: as §1
# [4] = biological target: Neu5Ac(a2-6)Gal(b1-4)GlcNAc(b1-3)Gal(b1-4)GlcNAc(b1-6)[Gal(b1-3)]GalNAc
# Summary of the method: as §1
# [5] = biological target: Neu5Ac(a2-6)Gal(b1-4)GlcNAc(b1-3)Gal(b1-4)[Fuc(a1-3)]GlcNAc(b1-3)Gal(b1-4)[Fuc(a1-3)]GlcNAc
# Summary of the method: as §1
# [6] = biological target: Neu5Ac(a2-6)Gal(b1-4)GlcNAc(b1-3)GalNAc
# Summary of the method: as §1
# [7] = biological target: Neu5Ac(a2-6)Gal(b1-4)GlcNAc(b1-3)[Neu5Ac(a2-6)Gal(b1-4)GlcNAc(b1-6)]GalNAc
# Summary of the method: as §1
# [8] = biological target: Neu5Ac(a2-6)Gal(b1-4)GlcNAc(b1-6)GalNAc
# Summary of the method: as §1
# [9] = biological target: Neu5Ac(a2-6)Gal(b1-4)GlcNAc(b1-6)[Gal(b1-3)GlcNAc(b1-3)]Gal(b1-4)Glc
# Summary of the method: as §1
# [10] = biological target: Neu5Ac(a2-6)Gal(b1-4)GlcNAc(b1-6)[Gal(b1-3)]GalNAc
# Summary of the method: as §1
# [11] = biological target: Neu5Ac(a2-6)Gal(b1-4)GlcNAc6S
# Summary of the method: as §1
# [12] = biological target: Neu5Ac(a2-6)GalNAc
# Summary of the method: as §1
# [13] = biological target: Neu5Ac(a2-6)GalNAc(b1-4)GlcNAc
# Summary of the method: as §1
# [14] = biological target: Neu5Ac(a2-6)GalNAc(b1-4)GlcNAc6S
# Summary of the method: as §1
# [15] = biological target: Neu5Ac(a2-6)GlcNAc(b1-4)GlcNAc
# Summary of the method: as §1
# [16] = biological target: Neu5Ac(a2-6)GlcNAc(b1-4)GlcNAc(b1-4)GlcNAc
# Summary of the method: as §1
# [17] = biological target: Neu5Ac(a2-8)Neu5Ac
# Summary of the method: as §1
# [18] = biological target: Neu5Ac(a2-8)Neu5Ac(a2-3)Gal(b1-3)GalNAc(b1-4)[Neu5Ac(a2-3)]Gal(b1-4)Glc
# Summary of the method: as §1
# [19] = biological target: Neu5Ac(a2-8)Neu5Ac(a2-3)Gal(b1-3)GalNAc(b1-4)[Neu5Ac(a2-8)Neu5Ac(a2-3)]Gal(b1-4)Glc
# Summary of the method: as §1
# [20] = biological target: Neu5Ac(a2-8)Neu5Ac(a2-3)Gal(b1-4)Glc
# Summary of the method: as §1
# [21] = biological target: Neu5Ac(a2-8)Neu5Ac(a2-3)Gal(b1-4)GlcNAc
# Summary of the method: as §1
# [22] = biological target: Neu5Ac(a2-8)Neu5Ac(a2-3)[Gal(b1-3)GalNAc(b1-4)]Gal(b1-4)Glc
# Summary of the method: as §1
# [23] = biological target: Neu5Ac(a2-8)Neu5Ac(a2-3)[GalNAc(b1-4)]Gal(b1-4)Glc
# Summary of the method: as §1
# [24] = biological target: Neu5Ac(a2-8)Neu5Ac(a2-8)Neu5Ac
# Summary of the method: as §1
# [25] = biological target: Neu5Ac(a2-8)Neu5Ac(a2-8)Neu5Ac(a2-3)Gal(b1-4)Glc
# Summary of the method: as §1
# [26] = biological target: Neu5Ac(a2-8)Neu5Ac(a2-8)Neu5Ac(a2-3)[Gal(b1-3)GalNAc(b1-4)]Gal(b1-4)Glc
# Summary of the method: as §1
# [27] = biological target: Neu5Ac(a2-8)Neu5Ac(a2-8)Neu5Ac(a2-3)[GalNAc(b1-4)]Gal(b1-4)Glc
# Summary of the method: as §1
# [28] = biological target: Neu5Ac(a2-8)Neu5Ac(a2-8)Neu5Ac(a2-8)Neu5Ac(a2-3)[GalNAc(b1-4)]Gal(b1-4)Glc
# Summary of the method: as §1
# [29] = biological target: Neu5Ac(a2-8)Neu5Gc(a2-3)Gal(b1-4)GlcNAc
# Summary of the method: as §1
# [30] = biological target: Neu5Ac(b2-6)Gal(b1-4)GlcNAc
# Summary of the method: as §1
# [31] = biological target: Neu5Ac(b2-6)GalNAc
# Summary of the method: as §1
# [32] = biological target: Neu5Ac9Ac(a2-3)Gal(b1-3)GlcNAc
# Summary of the method: as §1
# [33] = biological target: Neu5Ac9Ac(a2-3)Gal(b1-4)GlcNAc
# Summary of the method: as §1
# [34] = biological target: Neu5Ac9Ac(a2-6)Gal(b1-4)GlcNAc
# Summary of the method: as §1
# [35] = biological target: Neu5Gc(a2-3)Gal(b1-3)GlcNAc
# Summary of the method: as §1
# [36] = biological target: Neu5Gc(a2-3)Gal(b1-3)[Fuc(a1-4)]GlcNAc
# Summary of the method: as §1
# [37] = biological target: Neu5Gc(a2-3)Gal(b1-4)Glc
# Summary of the method: as §1
# [38] = biological target: Neu5Gc(a2-3)Gal(b1-4)GlcNAc
# Summary of the method: as §1
# [39] = biological target: Neu5Gc(a2-3)Gal(b1-4)GlcNAc(b1-3)Gal(b1-4)GlcNAc(b1-2)Man(a1-3)[Neu5Gc(a2-3)Gal(b1-4)GlcNAc(b1-3)Gal(b1-4)GlcNAc(b1-2)Man(a1-6)]Man(b1-4)GlcNAc(b1-4)GlcNAc
# Summary of the method: as §1
# [40] = biological target: Neu5Gc(a2-3)Gal(b1-4)[Fuc(a1-3)]GlcNAc
# Summary of the method: as §1
# [41] = biological target: Neu5Gc(a2-6)Gal(b1-4)GlcNAc
# Summary of the method: as §1
# [42] = biological target: Neu5Gc(a2-6)GalNAc
# Summary of the method: as §1
# [43] = biological target: Neu5Gc(a2-8)Neu5Ac(a2-3)Gal(b1-4)GlcNAc
# Summary of the method: as §1
# [44] = biological target: Neu5Gc(a2-8)Neu5Gc(a2-3)Gal(b1-4)GlcNAc
# Summary of the method: as §1
# [45] = biological target: Neu5Gc(a2-8)Neu5Gc(a2-3)Gal(b1-4)GlcNAc(b1-3)Gal(b1-4)GlcNAc
# Summary of the method: as §1
# [46] = biological target: Neu5Gc(a2-8)Neu5Gc(a2-6)Gal(b1-4)GlcNAc
# Summary of the method: as §1
# [47] = biological target: Neu5Gc(b2-6)Gal(b1-4)GlcNAc
# Summary of the method: as §1
binder,measurement,setting,value
Epa1 (Candida glabrata) (protein) MGSSHHHHHHSSGLVPRGSHMTSSNDISLASKDPTTFPLGCSPDITTPKKGLSMELYSYDFRKKGSYPCWDAAYLDPNYPRTGYKSHRLLAKVDGVTGNINFYYHATKGCTPQLGHLPASYNYPKPLTMTNFTMLLYGYFRPKVTGFHTFTISADDLLFVNFGAGNAFDCCRRDSSADHFGNYQAYAIWGSKTAKDELTVHLDAGVYYPIRLFYNNREYDGALSFTFKTESNENTVSDFSEYFFSLDDTEEGCPGLISYD,glycan array binding signal (z-score),[1],-0.251
same,glycan array binding signal (z-score),[2],-0.26
same,glycan array binding signal (z-score),[3],-0.219
same,glycan array binding signal (z-score),[4],0.709
same,glycan array binding signal (z-score),[5],-0.272
same,glycan array binding signal (z-score),[6],-0.224
same,glycan array binding signal (z-score),[7],-0.251
same,glycan array binding signal (z-score),[8],-0.293
same,glycan array binding signal (z-score),[9],-0.095
same,glycan array binding signal (z-score),[10],0.955
same,glycan array binding signal (z-score),[11],-0.335
same,glycan array binding signal (z-score),[12],-0.318
same,glycan array binding signal (z-score),[13],-0.361
same,glycan array binding signal (z-score),[14],-0.357
same,glycan array binding signal (z-score),[15],-0.265
same,glycan array binding signal (z-score),[16],-0.36
same,glycan array binding signal (z-score),[17],-0.318
same,glycan array binding signal (z-score),[18],-0.199
same,glycan array binding signal (z-score),[19],0.194
same,glycan array binding signal (z-score),[20],-0.337
same,glycan array binding signal (z-score),[21],-0.339
same,glycan array binding signal (z-score),[22],1.34
same,glycan array binding signal (z-score),[23],-0.341
same,glycan array binding signal (z-score),[24],-0.317
same,glycan array binding signal (z-score),[25],-0.426
same,glycan array binding signal (z-score),[26],-0.265
same,glycan array binding signal (z-score),[27],-0.306
same,glycan array binding signal (z-score),[28],-0.301
same,glycan array binding signal (z-score),[29],-0.332
same,glycan array binding signal (z-score),[30],-0.248
same,glycan array binding signal (z-score),[31],-0.312
same,glycan array binding signal (z-score),[32],-0.31
same,glycan array binding signal (z-score),[33],-0.34
same,glycan array binding signal (z-score),[34],-0.291
same,glycan array binding signal (z-score),[35],-0.306
same,glycan array binding signal (z-score),[36],-0.288
same,glycan array binding signal (z-score),[37],-0.284
same,glycan array binding signal (z-score),[38],-0.309
same,glycan array binding signal (z-score),[39],-0.359
same,glycan array binding signal (z-score),[40],-0.276
same,glycan array binding signal (z-score),[41],-0.293
same,glycan array binding signal (z-score),[42],-0.311
same,glycan array binding signal (z-score),[43],-0.318
same,glycan array binding signal (z-score),[44],-0.316
same,glycan array binding signal (z-score),[45],-0.319
same,glycan array binding signal (z-score),[46],-0.309
same,glycan array binding signal (z-score),[47],-0.231

# Source: the supplement of paper PMC8728848
